We go through 57 molecules from paper PMC4336329 (PLoS ONE, 2015).

Out of some 310,000 compounds screened, about 2,200 (0.71%) showed an effect of 50% or more. The effect is printed as a negative number. The list shows a part of the results.

This assay deals with human ether-à-go-go-related gene (hERG) potassium channel (human, UniProt Q12809). Put plainly: primary screen, population patch clamp on CHO cells stably expressing hERG.
human ether-à-go-go-related gene (hERG) potassium channel, sequence (Q12809 whole entry, looked up): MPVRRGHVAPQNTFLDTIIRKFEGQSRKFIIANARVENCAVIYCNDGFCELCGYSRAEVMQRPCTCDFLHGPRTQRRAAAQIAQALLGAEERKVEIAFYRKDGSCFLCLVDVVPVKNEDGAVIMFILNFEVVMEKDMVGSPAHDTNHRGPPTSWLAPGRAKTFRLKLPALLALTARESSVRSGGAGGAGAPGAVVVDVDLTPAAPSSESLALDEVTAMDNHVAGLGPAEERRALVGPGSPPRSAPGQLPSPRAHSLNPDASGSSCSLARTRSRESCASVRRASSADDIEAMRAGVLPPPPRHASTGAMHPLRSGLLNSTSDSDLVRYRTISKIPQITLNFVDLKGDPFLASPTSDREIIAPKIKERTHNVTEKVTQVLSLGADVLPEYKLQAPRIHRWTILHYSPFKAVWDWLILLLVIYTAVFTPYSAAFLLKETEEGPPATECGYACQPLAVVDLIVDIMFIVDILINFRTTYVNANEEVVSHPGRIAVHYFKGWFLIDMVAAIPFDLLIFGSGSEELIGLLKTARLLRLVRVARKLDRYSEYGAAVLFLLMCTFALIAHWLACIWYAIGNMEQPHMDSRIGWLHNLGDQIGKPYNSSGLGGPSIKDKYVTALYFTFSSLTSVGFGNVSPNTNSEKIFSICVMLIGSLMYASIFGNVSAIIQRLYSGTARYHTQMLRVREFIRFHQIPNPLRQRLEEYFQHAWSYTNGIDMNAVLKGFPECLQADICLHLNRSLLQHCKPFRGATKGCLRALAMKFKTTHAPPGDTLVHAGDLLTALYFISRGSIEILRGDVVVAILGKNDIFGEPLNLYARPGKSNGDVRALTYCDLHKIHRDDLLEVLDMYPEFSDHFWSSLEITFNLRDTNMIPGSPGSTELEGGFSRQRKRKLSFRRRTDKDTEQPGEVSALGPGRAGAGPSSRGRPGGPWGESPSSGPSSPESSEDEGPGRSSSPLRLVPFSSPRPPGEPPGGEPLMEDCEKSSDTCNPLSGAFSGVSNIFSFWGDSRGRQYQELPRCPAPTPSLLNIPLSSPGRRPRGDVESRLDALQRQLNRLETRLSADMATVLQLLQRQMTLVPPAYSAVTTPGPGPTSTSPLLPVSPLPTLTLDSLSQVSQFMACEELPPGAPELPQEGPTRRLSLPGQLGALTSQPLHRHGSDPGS
As to `Cc1ccc(C(c2c(C)nn(-c3ccccc3)c2N)c2c(C)nn(-c3ccccc3)c2N)cc1`, the “hERG current change (%, negative = inhibition) at 1uM” value is on record as 3.47%.
To `O=C(CN1CCOCC1)N1CCN(c2nnc(-c3ccccc3)c3ccccc23)CC1` belongs 11.7%.
Under `COC(=O)N/N=C/c1cn(CCOc2cccc(OC)c2)c2ccccc12` stands 12.1%; under `CC(=O)Cc1nsc(NC(=O)c2csc3c2CCCC3)n1`, -2.69%; under `Cc1ccc(CNC(=O)Cn2ccc3ccccc3c2=O)o1`, 12.9%.
Under `CCOc1ccc(OCc2nnc(SCC(=O)NC3CCS(=O)(=O)C3)n2-c2ccc(Cl)cc2)cc1` (stereo not drawn) stands -7.47%; under `CCc1nc(C)cn1S(=O)(=O)c1ccc(Cl)c(Cl)c1Cl`, 3.77%.
As to `CCOC(=O)C1CCCN(c2cc(NCCCO)c([N+](=O)[O-])c3nonc23)C1` (stereo not drawn), the “hERG current change (%, negative = inhibition) at 1uM” value is on record as 3.9%.
Take `COc1ccccc1C1CC(=O)Nc2c1c(=O)n(C)c(=O)n2C` (stereo not drawn): the “hERG current change (%, negative = inhibition) at 1uM” value worked out at 12.4%.
Take `O=C(CNC(=O)c1ccco1)N=Nc1c(O)[nH]c2ccc(Br)cc12`: the “hERG current change (%, negative = inhibition) at 1uM” value worked out at 15.5%.
Under `CCOC(=O)N1CCC(N(CCN(C)C)C(=S)Nc2cccc(SC)c2)CC1` stands 5.06%; under `CC1=NNC(=O)C1C(c1ccc(F)cc1)C(C#N)C#N` (stereo not drawn), -6.22%.
To `Cc1ccc(/C=C/C(=O)OCC(=O)N2CC(=O)Nc3ccccc32)o1` belongs 5.93%; to `CCCc1ncc(CN2CCCC(C(=O)Nc3ccc(-c4cccc(OC)c4)cc3)C2)cn1` (stereo not drawn), -1.02%; to `CCOc1cc(C2CC(=O)NC(SCC)=C2C#N)ccc1O` (stereo not drawn), 6.68%.
To `Cc1oc(/N=C/c2ccccc2O)c(C#N)c1C` belongs 13.3%.
`Cc1cc(C)nc(NC(=O)c2c(F)c(F)c(F)c(C(=O)Nc3cc(C)cc(C)n3)c2F)c1`: the “hERG current change (%, negative = inhibition) at 1uM” value came to 7.91%.
For `CCOC(=O)c1[nH]c2ccc(C)cc2c1N=C(C)N(C)C`, the “hERG current change (%, negative = inhibition) at 1uM” value was determined as 5.14%.
To `CC1CCc2[nH]c3ccc(C(=O)N(C)CC(=O)Nc4cccc(F)c4)cc3c2C1` (stereo not drawn) belongs -3.88%.
As to `CCOc1cc(N2CCOCC2)c(OCC)cc1NC(=O)C1=COCCO1`, the “hERG current change (%, negative = inhibition) at 1uM” value worked out at 3.4%.
On to `Cc1cc(Br)ccc1OCCOCCN1CCCC1.O=C(O)C(=O)O`, for which the “hERG current change (%, negative = inhibition) at 1uM” value is -9.41%.
Under `Cn1c(SCC2CCCO2)nnc1-c1ccncc1` (stereo not drawn) stands 9.85%.
Under `CCOC(=O)Cn1c(=O)cc(C)c2cccc(C)c21` stands 13%.
To `CC(=O)N1C(c2ccccc2O)C[C@]2(C)CC(=O)NC12` (stereo partly drawn) belongs 8.55%; to `CC(C)C(=O)Nc1cccc(NC(=O)c2ccc([N+](=O)[O-])cc2Cl)c1`, 2.88%; to `CCc1noc(C)c1C(=O)OCC(=O)NC(=O)c1ccccc1`, 5.47%.
For the molecule `O=C(CSCc1nc2ccccc2[nH]1)Nc1ccc2ccccc2c1`, the “hERG current change (%, negative = inhibition) at 1uM” value came to 5.23%.
Under `Cc1ccc(OCCn2cc(/C=C(\C#N)C(=O)NCC3CCCO3)c3ccccc32)cc1C` (stereo not drawn) stands 1.61%.
To `O=C(CNc1ccccc1F)Nc1cccc2ccccc12` belongs 7.66%; to `O=C(Nc1nnc(-c2ccncc2)o1)c1cccc(N2C(=O)CCC2=O)c1`, 6.75%; to `C/C(=N\NC(=O)c1ccn[nH]1)c1cn(C)nc1C`, 3.79%.
Under `CC(CC(=O)N1CCN(c2ccccc2)CC1)S(=O)(=O)c1ccc2c(c1)NC(=O)CS2` (stereo not drawn) stands 5.7%.
As to `CCOc1ccccc1C1N=C(c2ccc(OC)cc2)CC(c2ccccc2O)N1` (stereo not drawn), the “hERG current change (%, negative = inhibition) at 1uM” value is listed as 7.42%.
Under `CCOC(=O)C1(N(CC)CC)Sc2cc(C)ccc2NC1=O` (stereo not drawn) stands 15.3%.
To `CC(C)N1CC2=C(C1=O)C(c1ccc(O)cc1)NC(=O)N2C` (stereo not drawn) belongs -4.58%; to `COc1cc(/C=C/C(=O)Nc2nnc(C(C)(C)C)s2)cc(OC)c1OC`, 4.71%.
To `O=C(Nc1ccccc1N1CCCCC1)c1ccc(-c2cccc(Cl)c2)o1` belongs 22.8%; to `CC(C)CN(C(=O)c1cc2ccccc2o1)c1c(N)n(CC(C)C)c(=O)[nH]c1=O`, 11.5%; to `Cc1cc(=O)oc2c1c(C)nn2-c1cccc(Cl)c1`, 6.41%.
In the case of `Cc1ccccc1C(=O)NC1CCN(CC(=O)NCc2ccccc2)CC1`, the “hERG current change (%, negative = inhibition) at 1uM” value was -1.64%.
Regarding `COCCCN1C(=O)N(c2ccc(F)cc2)C(=O)C1CC(=O)Nc1ccc(OC)cc1` (stereo not drawn), the “hERG current change (%, negative = inhibition) at 1uM” value stood at 14.8%.
Under `O=C(Nc1ccc(NC(=O)c2ccccc2Br)cc1)c1ccccc1` stands 8.45%.
As to `NNC(=O)CCc1ccc(S(=O)(=O)N2CCOCC2)cc1`, the “hERG current change (%, negative = inhibition) at 1uM” value is 10.8%.
To `O=C(c1ccccc1)N1CCN(C(=O)c2cc3ccccc3oc2=O)CC1` belongs 6.86%.
To `CC1CNCCN1S(=O)(=O)c1cccc2cnccc12.Cl` (stereo not drawn) belongs 5.37%.
To `O=c1c2c(nc3cc(-c4ccc(F)cc4)[nH]n13)CCC2` belongs 5.2%; to `Cc1ccnc(N2CCC(C(=O)NC3CCCCCC3)CC2)n1`, 4.96%; to `O=C(Nc1ccc(N2CCOCC2)c(S(=O)(=O)Nc2ccc(Cl)cc2)c1)c1cnccn1`, 5.16%.
Regarding `O=C(O)CC/C(=N/NC(=O)CNC(=O)c1ccc2c(c1)OCCO2)c1ccccc1`, the “hERG current change (%, negative = inhibition) at 1uM” value was 20.8%.
Under `COc1ccc(C(=O)N/N=C2\CCS(=O)(=O)c3ccc(F)cc32)cc1OC` stands 3.79%.
To `O=C(NNC(=S)NC(=O)c1cccs1)c1ccc(O)cc1` belongs 12.1%.
Take `CC(C)NC(=O)c1c(CSc2ccccc2)noc1C(=O)NCc1ccccc1`: the “hERG current change (%, negative = inhibition) at 1uM” value was determined as 6.02%.
Under `Cc1cccc(NC(=S)NCC(c2cccnc2)N2CCOCC2)c1C` (stereo not drawn) stands 6.67%; under `O=C(COC(=O)c1cc([N+](=O)[O-])ccc1N1CCOCC1)Nc1c(Cl)cccc1Cl`, 8.72%.
Regarding `COCCCNC(=O)c1ccccc1SC`, the “hERG current change (%, negative = inhibition) at 1uM” value came to 15.7%.
For the molecule `CCOC(=O)CCN(Cc1cccs1)S(=O)(=O)c1ccc(Cl)cc1`, the “hERG current change (%, negative = inhibition) at 1uM” value is -17.4%.
Under `O=C(CS(=O)(=O)c1ccccc1)Nc1ncc([N+](=O)[O-])s1` stands 8.32%.
